From article PMC6919601, “Identification of Plasmodium dipeptidyl aminopeptidase allosteric inhibitors by high throughput screening” (PLoS ONE, 2019)
“And” between values parts separate entries of the source, which are not always exact repeats. Identical values can stand only once. The whole screen tested about 110,000 compounds, of which about 230 (0.21%) showed an effect of 50% or more. The list shows a part of the results.

biological target: DPAP1 (Plasmodium falciparum, UniProt Q8IIJ9); assay: primary screen, percent inhibition; read by cleavage of a fluorogenic dipeptide substrate; higher = more effect of the substance; design: species or system P. falciparum D10 trophozoite lysates; single well
Sequence (Q8IIJ9 whole entry, looked up): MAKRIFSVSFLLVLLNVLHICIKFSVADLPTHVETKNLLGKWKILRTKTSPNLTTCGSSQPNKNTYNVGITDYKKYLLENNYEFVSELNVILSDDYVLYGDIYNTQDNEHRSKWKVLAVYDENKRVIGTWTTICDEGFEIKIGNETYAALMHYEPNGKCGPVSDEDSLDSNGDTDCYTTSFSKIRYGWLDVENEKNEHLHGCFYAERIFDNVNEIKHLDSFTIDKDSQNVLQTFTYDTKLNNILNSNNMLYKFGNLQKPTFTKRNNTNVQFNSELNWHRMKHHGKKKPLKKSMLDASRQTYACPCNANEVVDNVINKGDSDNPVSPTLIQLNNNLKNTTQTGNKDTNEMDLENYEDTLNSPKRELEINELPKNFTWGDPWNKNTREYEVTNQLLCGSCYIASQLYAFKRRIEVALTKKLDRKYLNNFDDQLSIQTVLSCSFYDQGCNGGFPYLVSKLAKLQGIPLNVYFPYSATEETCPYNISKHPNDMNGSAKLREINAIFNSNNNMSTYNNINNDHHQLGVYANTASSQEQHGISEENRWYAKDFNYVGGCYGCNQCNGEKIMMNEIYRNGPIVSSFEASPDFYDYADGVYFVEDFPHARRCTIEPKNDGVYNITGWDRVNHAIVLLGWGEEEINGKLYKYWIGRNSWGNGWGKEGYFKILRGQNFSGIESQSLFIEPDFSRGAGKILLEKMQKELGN
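Also: 30 min substrate incubation versus DMSO and 10 µM JCP410 controls.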

| SMILES | % Inhibition @ 10 uM |
| --- | --- |
| Cc1n[nH]c(C)c1CCCCCOc1ccccc1 | 0.0792% |
| CC(C)C(C(=O)NCCN(C)C)c1ccccc1 (centres unmarked) | -13% |
| Cc1ccc(S(=O)(=O)NC(C)C2C3CC4CC(C3)CC2C4)c(C)c1 (centres unmarked) | -3.75% |
| COC(=O)c1[nH]c2cc(OC)ccc2c1NS(=O)(=O)c1ccc2nc(O)sc2c1 | -1.24% |
| Cc1cccc(-c2nnc3sc(NC(=O)C(C)C)nn23)c1 | 1.07% |
| CN1CCN(C(=O)Cn2ncc3c4ccccc4n(Cc4ccccc4)c3c2=O)CC1 | 4.95% |
| CCCCc1c(C)nc2ccc(OC)cc2c1S | -0.267% |
| CCN(CC)CCCNC(=O)c1ccc2c(c1)sc1nc(-c3ccc(OC)cc3)cn12 | 3.27% |
| O=C(C1CCCC1)N1CCN(c2ccc(F)cc2)CC1 | 5.31% |
| COc1cccc(C2C(C(=O)Nc3cccnc3)=C(C)Nc3nc(-c4cccs4)nn32)c1 (centres unmarked) | -7.96% |
| CC1(C)CC(=O)c2cc(OCC(=O)NCC3CCCO3)ccc2O1 (centres unmarked) | 1.37% |
| CN(C)/C=C1\C(=O)c2ccccc2OC1C1CCCCC1 (centres unmarked) | -8.92% |
| CCN(CCN(C)C)Cc1ccc(F)c(F)c1 | 3.04% |
| Cc1ccc(C)c(NC(=O)CSc2ccccn2)c1 | 1.01% |
| Cc1nc2ccc(S(=O)(=O)NCC(=O)N3CCC(N4CCCCC4)CC3)cc2s1 | 2.57% |
| COc1ccc(-c2noc(CN(C(=O)C(C)Oc3ccc(C)cc3)C(C)C)n2)cc1OC (centres unmarked) | 0.558% |
| Cn1c(C(=O)NCCCN2CCCC2=O)cc2sccc21 | -6.91% |
| O=C(O)c1ccc(/C=C/C(=O)c2ccc3c(c2)OCCO3)cc1 | 1.84% and 3.43% |
| CCOC(=O)N1CCC(NC(=O)c2oc(=O)c3ccccc3c2-c2ccccc2)CC1 | -3.35% |
| CCOC(=O)C1=C(C)N=c2s/c(=C/c3ccc4c(c3)OCO4)c(=O)n2C1c1cccs1 (centres unmarked) | 4.54% |
| OCCN1CCN(C/C=C/c2ccccc2)CC1 | -3.57% |
| Cc1ccc(NC(=O)c2ccc(N3C(=O)c4ccc(C(=O)O)cc4C3=O)cc2)cc1 | 5.64% |
| COc1ccc(/C=C2/N=C(c3cc(Cl)ccc3OC)OC2=O)cc1 | -2.27% |
| CC1CCCC(N2CCN(C/C=C/c3ccccc3)CC2)C1 (centres unmarked) | -0.414% |
| O=C(Nc1cc([N+](=O)[O-])ccc1Cl)c1cccc([N+](=O)[O-])c1 | 12.2% |

| SMILES | % Inhibition @ 10 uM |
| --- | --- |
| CCCC1=NC(C)(C)Cc2cc(OC)c(OC)cc21 | 23.4% |
| COc1ccc(-c2cc(C)no2)cc1S(=O)(=O)NCCCc1ccco1 | -0.342% |
| COc1ccc(CC(=O)Nc2ccc(N(C)C(C)=O)cc2)cc1 | 2.27% |
| CCOC(=O)C1=CN(C)C=C(C(=O)OCC)C1c1cc(Br)c(OCC)c(OC)c1 | -3.23% |
| O=C1CC(Nc2ccc(F)cc2)C(=O)N1c1ccc(Cl)c(Cl)c1 (centres unmarked) | -13.5% |
| COc1ccc(/C=C/C(=O)c2ccc(Cl)c(Cl)c2)c(OC)c1 | 4.18% |
| O=C(Nc1cccc(F)c1)c1ccc(Cl)cc1 | -1.92% |
| COC(=O)/C(=C/c1ccco1)NC(=O)c1ccc(OCC(C)C)cc1 | -0.0626% |
| COc1cccc(/C=C2\SC(N3CCN(C)CC3)=NC2=O)c1OC | 5.3% |
| OCC1CCCN1Cc1ccc(F)cc1 (centres unmarked) | -2.34% |
| CCn1cc(C(=O)Nc2c(C)nn(Cc3ccccc3Cl)c2C)cn1 | 7.06% |
| N#Cc1c(SCC(=O)Nc2ccccn2)nsc1SCC(=O)Nc1ccccn1 | 6.08% |
| COc1cc(C2C(C(=O)c3ccc4c(c3)CC(C)O4)=C(O)C(=O)N2CC2CCCO2)ccc1O (centres unmarked) | 6.15% |
| COc1ccc(C(=O)NCC(C)NC(=O)c2ccc(OC)cc2)cc1 (centres unmarked) | 0.54% |
| CCN1CCN(c2cc(C)c3cccc(SC)c3n2)CC1 | -3.74% |
| Cc1ccc(S(=O)(=O)CCc2ccncc2)cc1 | 0.266% |
| O=C(NCCN1CCOCC1)c1cc2nc(-c3cccs3)cc(C(F)(F)F)n2n1 | -12.1% |
| c1ccc(CNc2ccc3ccccc3n2)nc1 | -6.88% |
| COCc1nc(-c2ccc(-c3ccc(OC)cc3)nc2OC)no1 | -5% |
| COC(=O)c1cnn2c1NCN(Cc1cccs1)C2 | -1.3% |
| CCCCOc1ccc(Cc2nnc(S)n2N)cc1 | -1.68% |
| CC(=O)C1=C(C)NC(SCc2ccccc2)=C(C#N)C1c1ccc(Cl)cc1 (centres unmarked) | 7.12% |
| COc1cc2c(cc1OC)C(C(=O)NCCC1=CCCCC1)C(c1ccccc1F)N(C)C2=O (centres unmarked) | 3.33% |
| CCN1C(=O)N/C(=C/c2cc(C)n(-c3ccccc3Br)c2C)C1=O | -9.66% |
| O=C1[C@@H]2N=C(c3ccccc3)O[C@@H]2C[C@H](CCO)N1Cc1ccccc1 | 0.235% |
